Test results as given in the supplement of paper PMC3334620.
In all, about 33,000 sequences were measured (“E-score (-0.5 to 0.5)”: median about -0.011, highest 2% from about 0.28 on). The list shows a part of the results.

Biological target: T1, Gcr1 (UniProt P07261)
T1 sequence: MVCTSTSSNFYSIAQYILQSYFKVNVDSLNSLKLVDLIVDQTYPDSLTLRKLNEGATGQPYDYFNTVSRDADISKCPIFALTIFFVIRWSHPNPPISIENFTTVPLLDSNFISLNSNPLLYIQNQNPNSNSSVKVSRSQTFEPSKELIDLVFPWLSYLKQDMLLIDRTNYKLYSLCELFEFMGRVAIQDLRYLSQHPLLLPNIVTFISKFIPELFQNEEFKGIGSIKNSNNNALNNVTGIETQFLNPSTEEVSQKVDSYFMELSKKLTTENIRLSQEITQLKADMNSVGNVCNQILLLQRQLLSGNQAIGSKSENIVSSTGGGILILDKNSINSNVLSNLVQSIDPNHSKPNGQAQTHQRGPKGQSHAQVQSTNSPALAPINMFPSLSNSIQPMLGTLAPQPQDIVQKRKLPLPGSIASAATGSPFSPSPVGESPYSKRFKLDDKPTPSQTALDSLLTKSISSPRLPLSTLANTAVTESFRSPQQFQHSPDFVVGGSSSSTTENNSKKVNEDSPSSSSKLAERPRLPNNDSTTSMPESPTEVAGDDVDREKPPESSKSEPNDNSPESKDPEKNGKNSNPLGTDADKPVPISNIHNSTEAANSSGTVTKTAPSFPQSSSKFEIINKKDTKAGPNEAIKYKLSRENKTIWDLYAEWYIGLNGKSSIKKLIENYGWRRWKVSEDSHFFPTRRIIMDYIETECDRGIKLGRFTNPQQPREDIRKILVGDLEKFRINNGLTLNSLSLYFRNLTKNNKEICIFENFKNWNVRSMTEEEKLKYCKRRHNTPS
Experiment: PBM E-score (8-mer binding enrichment) (E-score (-0.5 to 0.5)); higher = stronger / more preferred TF binding; most listed sequences are background and not binding sites
Conditions: protein concentration: 100 nM; construct: GST-full length
Procedure: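 Universal 'all 10-mer' protein binding microarrays (Agilent AMADID 015681) probed with GST-tagged S. cerevisiae TFs (full-length or DBD) made by in vitro transcription/translation (PURExpress), about 100-200 nM. Bound TF was detected with fluorescent anti-GST. Each ungapped 8-mer (which stands for itself and its reverse complement) is scored by the PBM enrichment score (E-score), a modified Wilcoxon-Mann-Whitney statistic from -0.5 to +0.5, computed with the Universal PBM Analysis Suite. Scale: above 0.35 generally sequence-specific binding.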

Sequence | PBM E-score
GAGTACTC | -0.0973
TTCCTCAA | 0.105
ACAGCTGG | -0.215
AACCAGTG | -0.195
CGAAGCAG | -0.0727
ACCAAAGT | 0.0467
GTAAAAGA | 0.00859
GAACCTTC | -0.0114
GAAAGCGC | -0.166
ATGGCGTG | -0.0168
AGATTCGC | 0.0415
ATACCACG | 0.0534
CACTGCAG | -0.112
CTAATTTA | 0.291
CCTAGACG | -0.125
CACTTTAA | 0.0656
CGTGTACA | -0.0328
GATATTCA | 0.0728
AGCGCGAA | -0.103
CTGCGGAA | 0.0547
GCCCCCCC | -0.0192
AATTAGCT | 0.083
GACCAGCA | 0.0731
AACACCGT | -0.132
ACAGCCCT | -0.19

Sequence | PBM E-score
GTTATCTA | 0.0511
CGACATCG | -0.0982
CTCTCACC | -0.129
ACGGATAT | -0.0661
CCAGGTCC | -0.00479
TATTGACA | -0.243
AGGGTTCG | -0.0648
TCCTTGAA | -0.0928
ACGCATGC | 0.0121
CCAGCGGA | 0.0309
ACTAAATA | 0.269
CGATAGCG | 0.00164
CAACGTAC | -0.0815
AAGGCTTG | -0.0951
CCCTCTTA | -0.0414
CTCGGAAA | 0.0246
CTTGCAGA | -0.144
GGATGTTA | 0.244
ACGCCGTA | 0.112
CCAAATAC | 0.0871
ACAACACT | -0.0251
AACATAGC | -0.0652
GCATAGGC | -0.227
CACATCCA | 0.0944
CAAGCATA | 0.0591

Sequence | PBM E-score
AGGGGTAT | -0.0579
CTATAATA | 0.176
GTCGCGGA | -0.188
CCGTTCGA | -0.175
CGCGGCTC | 0.117
CTGCAGAA | -0.206
GATTATGA | 0.0052
CAAGTTCA | 0.00963
GCTTCGGA | 0.157
CATTTAGG | 0.027
AGCTGGTG | 0.0386
CCTTAAAG | 0.0175
CCGTGGCG | -0.102
CATGGCGG | -0.0542
ATACAGAA | 0.16
AGAAACAA | 0.0697
CTTGCAAA | 0.0177
GAATTGTA | 0.0321
CATAACCC | -0.121
AACCACGA | -0.123
CAGATGCA | 0.0547
ATAATCGC | 0.0337
GGAGGCTA | 0.185
CCCAAGGC | -0.167
GTTGGGTA | -0.0149

Sequence | PBM E-score
ACCGGTTA | 0.212
CCCGCCGA | -0.146
ACATTAAG | 0.0636
AATTTTAC | 0.0945
ACCACGGG | -0.168
CCAAAAAG | 0.131
GTGTTATA | -0.0287
AAAATATT | 0.0735
GCTCTCCC | -0.146
CTGTAACC | 0.0204
CAGGGATG | -0.0679
CGATTTAA | 0.158
CATTAAAC | 0.045
ATGTCCGA | 0.0142
AGTGGACC | -0.0505
AATGGGGC | 0.0308
GAGTAACA | -0.0312
GATTTGGA | -0.0989
CATAAATC | 0.0709
GGGAGGGA | 0.00084
CCGGGAAA | -0.00328
AAAGCATG | -0.101
ATTATGCA | 0.0304
GCATTCCC | -0.139
TACCTCAA | 0.0776

Sequence | PBM E-score
ACGGAAGC | 0.344
CACCCTGC | 0.141
ATCTTCTA | 0.206
AAGGGTCA | -0.267
CAAGAGGA | 0.072
AAAGCAGA | 0.101
GACCAACC | -0.169
GAATTGCC | -0.243
ATATTCCC | -0.0929
GCAAAGGA | -0.0648
ACATACCC | -0.0951
ATCAACTA | 0.0186
AAGGTTTA | 0.0367
TTGTGAAA | 0.0169
ACATGATC | 0.0272
CGCCAGCG | -0.0865
AAATCATA | -0.253
CGCCAGGA | 0.157
AGCGACGG | -0.0243
ACGAGCAG | -0.144
CTATTTCA | 0.0146
CTGGGCTA | -0.0409
ATACGACC | -0.00279
CGCGCTCA | 0.0209
AAGCGAAC | -0.153

Sequence | PBM E-score
GTCGGTTA | -0.058
GGGCGAAC | -0.0105
CGGGCGAA | -0.213
CACCGGAC | -0.0141
ACATTGGC | -0.0383
ACCGTCGT | -0.183
CATCTTCC | 0.0808
AACCATGA | -0.00643
CAGGTTAC | -0.157
CAGGATGG | -0.132
TAGCGATA | -0.0939
AGGCGAAA | -0.108
CGGAGAGA | -0.0586
ACACACTA | -0.057
AAGGAAAC | -0.0301
ACCCAGTG | -0.0145
GACGGGAC | -0.151
GAATCCAA | 0.309
ATCCAACG | 0.06
AATGCATT | -0.147
CAACCGGA | 0.206
CAATCTAG | 0.127
AAGCCCAA | 0.141
CACAGAGA | -0.0375
GAATATTC | -0.0608

Sequence | PBM E-score
GCGTGACC | -0.139
CACTAACG | 0.00491
CCTTCCTC | 0.022
CGGTAAAA | 0.08
GACCTGCC | -0.164
AGTATTAC | 0.0553
ACTCGGGA | 0.132
CGATCCGC | -0.215
AACGTGGC | -0.104
CAGGAGTC | 0.219
CACAAGGC | -0.161
CCTGGCTA | 0.0412
AGAAATGG | 0.0246
CCCTCAGG | -0.178
ATGATGTC | 0.00482
ACTGAAAT | 0.00378
AGTTACTG | 0.0791
AATGTCCG | -0.0101
AGACTGGA | 0.224
CACATGTG | -0.129
CATCAACA | 0.015
TGAGCTCA | -0.277
ATGAAGAC | -0.102
TAGCTGGA | 0.129
AACTTTAA | 0.0795

Sequence | PBM E-score
AAGGATCA | -0.0152
GAATGTCC | -0.215
ATGCGTGC | 0.0119
AAAAATTA | 0.2
CTGTCACA | -0.12
GAAAGCCA | -0.0646
ATGAGTTG | 0.0239
CTCGTGGA | -0.0317
GAGCGTGA | -0.105
ATAAGGCA | 0.0435
CGTACGCC | 0.0348
GGGAGCTA | 0.00402
CGAAAAGA | 0.0924
CAATCAAG | 0.00335
CACAGTTA | 0.119
AAATCGCC | 0.062
ATGTAGAA | -0.0324
CGTACACA | 0.0337
TGCGATAA | 0.0278
ATGTCACC | 0.168
CGTGTCTC | -0.178
AAGCAGAT | -0.03
ACGATACC | 0.131
CGTTGCTC | -0.0455
ATCCCGCG | 0.107

Sequence | PBM E-score
GTTGTAGA | -0.0206
ACTAGGCG | 0.199
CGAATCGA | 0.137
TGCAAACA | -0.126
AACGGTGC | 0.139
ACTGGGCC | -0.135
CGAACCTC | -0.0886
CAGCCTTA | -0.0585
AAGTGGAA | 0.41
CAATAATA | 0.00699
CCCAAACC | 0.118
ACCGCACC | 0.0134
AACCATAA | 0.167
TAGAAGCA | 0.0346
AGGTGTTG | -0.0564
TCATTCAA | 0.00751
GGAGTGAA | 0.0541
GTGTCGGA | 0.0513
AGCTGAAG | -0.0873
